Test results as given in PubChem BioAssay AID488969 (Vanderbilt High Throughput Screening Facility, 2010).
Over roughly 110,000 compounds, “z-score” has its median near -0.1; the highest 2% begin near 2. Some of the results follow.

Each molecule was assayed against Metabotropic glutamate receptor 8 (Rattus norvegicus) (UniProt P70579) (assay: rat mGluR8 modulators via GIRK flux, primary screen, cell-based, thallium flux, HTS (AID 488969)). Conditions: HEK293 rat mGluR8, GIRK (G protein-gated inwardly rectifying potassium channel) thallium flux, FluoZin2; at 10 µM; stronger effect = higher value; submaximal glutamate (EC20) added with thallium.
UniProt P70579, sequence (P70579 whole entry, looked up): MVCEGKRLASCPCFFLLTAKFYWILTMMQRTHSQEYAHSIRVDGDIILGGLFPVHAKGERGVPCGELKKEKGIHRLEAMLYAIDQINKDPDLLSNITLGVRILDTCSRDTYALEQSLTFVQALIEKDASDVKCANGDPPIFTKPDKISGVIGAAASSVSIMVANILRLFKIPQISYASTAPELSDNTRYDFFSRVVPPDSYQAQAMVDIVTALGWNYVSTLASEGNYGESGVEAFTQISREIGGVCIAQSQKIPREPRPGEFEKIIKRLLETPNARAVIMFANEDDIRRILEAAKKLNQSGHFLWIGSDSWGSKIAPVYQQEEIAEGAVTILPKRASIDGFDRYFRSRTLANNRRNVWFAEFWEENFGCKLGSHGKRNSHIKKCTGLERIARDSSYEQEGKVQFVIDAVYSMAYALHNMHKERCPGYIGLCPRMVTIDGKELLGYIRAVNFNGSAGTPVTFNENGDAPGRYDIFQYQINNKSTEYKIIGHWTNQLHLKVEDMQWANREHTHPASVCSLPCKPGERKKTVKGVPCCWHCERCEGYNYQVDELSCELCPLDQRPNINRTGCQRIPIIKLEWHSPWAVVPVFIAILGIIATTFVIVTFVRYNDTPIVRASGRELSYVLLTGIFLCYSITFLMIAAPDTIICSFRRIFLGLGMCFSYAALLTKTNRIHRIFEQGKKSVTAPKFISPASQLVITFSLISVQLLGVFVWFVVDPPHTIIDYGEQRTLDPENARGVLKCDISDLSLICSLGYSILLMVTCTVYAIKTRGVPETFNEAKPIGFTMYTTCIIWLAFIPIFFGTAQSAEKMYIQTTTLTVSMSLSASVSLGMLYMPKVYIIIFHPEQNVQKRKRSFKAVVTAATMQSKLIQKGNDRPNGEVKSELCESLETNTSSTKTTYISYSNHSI
Molecule `Cc1noc(NS(=O)(=O)c2ccc(N/C=C/C(=O)c3ccncc3)cc2)c1C` has a z-score of -0.141.
Work on `COC(=O)CN1CCN(C(=O)c2ccc(F)cc2)c2ccccc2C1` yielded a z-score of 0.137.
`Cc1ccc(Sc2c(C)[nH]n(C(C)(C)C)c2=O)cc1` showed a z-score of 0.791.
Work on `CCOc1ccc(Br)cc1C1C(C(=O)OC)=C(N)Oc2cc(N(C)C)ccc21` (stereo not given) yielded a z-score of -0.111.
`O=c1c(CN2CCN(c3ccccn3)CC2)coc2ccccc12` showed a z-score of -0.00518.
`O=C(c1ccccc1)C(C(=O)N1CCc2ccccc2C1)n1ccccc1=O` (stereo not given) was tested, and the z-score was 0.0663.
With `Cc1nc2ccccc2c2nc3ccccc3n12` the z-score was -0.583.
Work on `Cc1cccc(C)c1NC(=O)C(c1ccccc1)N1CCOCC1` (stereo not given) yielded a z-score of -0.108.
In the case of `Cc1[nH]nc(-c2ccc(O)c(C)c2O)c1-c1cnn(-c2ccccc2)c1`, the z-score is reported as -2.01.
In the case of `CC1CCC2(CC1)SCC(=O)N2c1ccccc1` (stereo not given), the z-score is reported as 0.0047.
In the case of `CCCOc1cccc(C(=O)N(Cc2ccc(OC)c(OC)c2)C2CCS(=O)(=O)C2)c1` (stereo not given), the z-score is reported as -0.254.
Molecule `Cc1ccc(C(=O)Nc2ccc(F)cc2)o1` has a z-score of -0.42.
`COc1ccc(C(=O)NCc2cn3ccsc3n2)cc1OC` gave a z-score of -0.547.
`CC1(C)Cc2ccccc2C(NNC(=O)c2ccccn2)=N1` showed a z-score of 0.524.
`O=C(Cn1cnc2c(nnn2-c2ccc(F)cc2)c1=O)NCC1CCCO1` (stereo not given) was tested, and the z-score was 0.462.
Work on `CCNc1ccc2c(Cl)cc(=O)oc2c1` yielded a z-score of 0.629.
`CCOC(=O)C1(C(F)(F)F)N=C(c2cccnc2)OC(N2CCOCC2)=N1` (stereo not given) showed a z-score of 0.0727.
With `Cc1ccc(SC(C)C(=O)NCc2cccnc2)cc1` (stereo not given) the z-score was -0.913.
Work on `COCCNC(=O)C(c1ccc(F)cc1)N(Cc1ccco1)C(=O)CCC(=O)Nc1nccs1` (stereo not given) yielded a z-score of 0.583.
`COc1cc(C(=O)COC(=O)CNC(=O)C2CCCCC2)cc(OC)c1OC` was tested, and the z-score was 0.302.
Molecule `CCOc1ncccc1C(=O)OCC(=O)Nc1cccc(C(C)=O)c1` has a z-score of -0.737.
For `COc1cc2oc(=O)c(Br)c(C)c2c(OC)c1OC`, the z-score was 0.0377.
In the case of `Cc1ccc2oc(=O)c3cnn(CC(=O)N4CCN(c5ccccc5)CC4)c3c2c1`, the z-score is reported as -0.394.
Work on `Cc1cc(C(=O)N/N=C/c2cccnc2)c(C)o1` yielded a z-score of 0.000639.
`COc1ccc(Oc2nc(Oc3ccc(OC)cc3)nc(Oc3ccc(OC)cc3)n2)cc1` showed a z-score of 0.397.
In the case of `Cc1cc(C)cc(NC(=O)N2CCCC2C(=O)Nc2ccc(-n3cnnn3)cc2)c1` (stereo not given), the z-score is reported as -0.172.
In the case of `CCOC(=O)c1[nH]c2ccc(OC)cc2c1NC(=S)N1CCN(c2cccc(Cl)c2)CC1`, the z-score is reported as 0.523.
In the case of `CCC(=O)N1CCc2cc(S(=O)(=O)N3CCN(c4ccccn4)CC3)ccc21`, the z-score is reported as -0.19.
`C=CCN1C(=O)/C(=C\c2cccs2)C(C(=O)OC)=C1C` showed a z-score of -0.149.
Molecule `CN(C)C(CN1C(=O)C2CC=CCC2C1=O)c1cn(C)c2ccccc12` (stereo not given) has a z-score of 0.00474.
Work on `CCOC(=O)c1c(C)c(C(=O)NCc2ccccn2)c(C)n1C` yielded a z-score of 0.016.
In the case of `CCCC(=O)C1=C(N(C)c2ccccc2)CC(C)(C)C(C(=O)OC)C1=O` (stereo not given), the z-score is reported as -0.179.
`Cc1occc1-c1nnc(SCC(=O)Nc2nc(C(C)(C)C)cs2)o1` showed a z-score of -0.256.
`Cc1ccccc1Cn1cccc1/C=C1/C(=N)N2C=CSC2=NC1=O` gave a z-score of 0.617.
For `Cc1cc(/C=C(\C#N)C(=O)NCc2ccco2)c(C)[nH]1`, the z-score was -0.205.
In the case of `OCCOCCOCCn1c2ccccc2c2ccccc21`, the z-score is reported as 0.632.
Work on `COc1ccc(-c2nsc3c(SCC(=O)Nc4cc(C)ccc4C)ncnc23)cc1` yielded a z-score of 0.00156.
`COc1ccc(-n2nc(C(=O)NCC(=O)NCC3CCCO3)c3ccccc3c2=O)cc1Cl` (stereo not given) showed a z-score of -0.286.
For `CC(Sc1nc(NCc2ccccc2)nc(N(C)C)n1)C(=O)Nc1ccccc1` (stereo not given), the z-score was -0.344.
Work on `COc1ccc(CN2C(=O)c3ccccc3C2=O)cc1C(=O)OC(C)C(=O)NC(N)=O` (stereo not given) yielded a z-score of -0.386.
`c1ccc(-c2csc(Nc3cccnc3)n2)nc1` gave a z-score of 0.0459.
In the case of `O=C(COC(=O)c1ccc2ccccc2c1)NCCCc1ccccc1`, the z-score is reported as -0.194.
With `CCn1c(CCNC(=O)c2ccc(OC)cc2)nnc1SCc1ccc(Cl)cc1Cl` the z-score was -0.496.
`Cc1ccc(S(=O)(=O)c2c(C)nn(C(C)(C)C)c2OC(=O)c2cccs2)cc1` gave a z-score of -0.303.
In the case of `CC1CCN(C(=S)c2ccc([N+](=O)[O-])cc2)CC1`, the z-score is reported as -0.131.
`Cc1cc(C)n2nc(C(=O)Nc3ccc(S(=O)(=O)N4CCCCC4)cc3)nc2n1` showed a z-score of 0.26.
For `CC(C)(C)NC(=O)C(c1ccccc1)N(C(=O)C1CSC(=O)C1)c1ccccc1` (stereo not given), the z-score was -0.0608.
Molecule `O=[N+]([O-])c1ccccc1/C=N/NC1=NCCCCC1` has a z-score of -0.196.
Work on `c1ccc2c(c1)CCCN2Cc1nnc2n1CCCCC2` yielded a z-score of -0.0623.
`O=C(Nc1nccs1)c1ccc(COc2ccc(F)cc2)o1` showed a z-score of -0.0217.
Molecule `O=C(OCn1ncc(Br)c(Br)c1=O)c1ccccc1Cl` has a z-score of -1.85.
`Cc1nn(-c2ncc(C(F)(F)F)cc2Cl)c(=O)n1-c1ccccc1` showed a z-score of -0.0331.
`COCCNc1nc(-c2cc3ccccc3o2)cs1` was tested, and the z-score was -0.198.
`CCOCCCNC(=O)C(c1ccc(C)cc1)N(Cc1ccc2c(c1)OCO2)C(=O)c1cnccn1` (stereo not given) was tested, and the z-score was 0.615.
`CCc1ccc(N2CC(C(=O)Nc3cccnc3)CC2=O)cc1` (stereo not given) was tested, and the z-score was -0.423.
In the case of `CCCc1nnc(NC(=O)c2cc3ccccc3oc2=O)s1`, the z-score is reported as 0.243.
`Cc1nn(-c2cccc(Cl)c2)c2nc(C(F)(F)F)[nH]c(=O)c12` was tested, and the z-score was -0.292.
Work on `CCC1CCCCN1c1ccc([N+](=O)[O-])cc1/C=N/NC(=O)Cn1c2ccccc2c(=O)c2ccccc21` (stereo not given) yielded a z-score of -0.1.
With `O=C(c1sc(N2CCOCC2)nc1-c1ccccc1)N1CCCCC1` the z-score was 0.0804.
With `CCOC(=O)c1cc2c(s1)-c1ccccc1CC2` the z-score was -0.0854.
With `CC(OC(=O)c1ccncc1)C(=O)Nc1cccc(Cl)c1` (stereo not given) the z-score was -0.257.
Work on `CCc1ccc(NC(=O)CN(c2cccc(C)c2)S(C)(=O)=O)cc1` yielded a z-score of -0.0133.
`O=C1C2=C(NC(=S)NC2c2ccc(Cl)cc2)NC(c2ccc(Cl)cc2)N1c1ccc(Cl)cc1` (stereo not given) showed a z-score of -0.109.
Work on `CCC(=O)Nc1cc(Cl)ccc1N1CCN(C(=O)CC)CC1` yielded a z-score of -2.26.
`CC(=O)N=c1c(C#N)cc2c(=O)n3ccccc3nc2n1Cc1ccccc1` showed a z-score of -0.381.
For `Cc1ccccc1-n1c(SCc2cccc(F)c2)nc2[nH]ncc2c1=O`, the z-score was -0.858.
`CN(C)S(=O)(=O)c1ccc(C(=O)Nc2nc(-c3ccccc3)c(C(=O)c3ccccc3)s2)cc1` showed a z-score of 0.00341.
With `Cc1ccccc1CSCC(Nc1ccc(C(=O)O)cc1[N+](=O)[O-])C(=O)O` (stereo not given) the z-score was -0.0738.
With `O=C(NCCC1=CCCCC1)c1ccc2c(=O)n3c(nc2c1)CCCCC3` the z-score was -0.917.
In the case of `Cc1ccc2[nH]c(=O)c(COC(=O)c3ccccn3)cc2c1`, the z-score is reported as -0.486.
